# The supplement of paper PMC3334620
# Over roughly 33,000 sequences, “E-score (-0.5 to 0.5)” has its median near -0.053; the highest 2% begin near 0.37. The list shows a part of the results.
# Biological target: Hap1 (UniProt P0CE41)
# Experiment: PBM E-score (8-mer binding enrichment) (E-score (-0.5 to 0.5)); higher = stronger / more preferred TF binding; most listed sequences are background and not binding sites
# Details: protein concentration: 200 nM; construct: GST-DNA-binding domain
# Method in brief: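 Yeast transcription factors carrying a GST tag, as full-length proteins or DNA-binding domains, were produced by PURExpress in vitro transcription/translation. About 100-200 nM protein was applied to universal all-10-mer Agilent arrays, double-stranded by primer extension on fresh or once-stripped slides. Bound protein was detected with fluorescent anti-GST, and scans were normalised with masliner. The Universal PBM Analysis Suite gave each ungapped eight-base word, pooled with its reverse complement, an E-score, a modified Wilcoxon-Mann-Whitney statistic.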
# Sequence of UniProt P0CE41 (P0CE41 whole entry): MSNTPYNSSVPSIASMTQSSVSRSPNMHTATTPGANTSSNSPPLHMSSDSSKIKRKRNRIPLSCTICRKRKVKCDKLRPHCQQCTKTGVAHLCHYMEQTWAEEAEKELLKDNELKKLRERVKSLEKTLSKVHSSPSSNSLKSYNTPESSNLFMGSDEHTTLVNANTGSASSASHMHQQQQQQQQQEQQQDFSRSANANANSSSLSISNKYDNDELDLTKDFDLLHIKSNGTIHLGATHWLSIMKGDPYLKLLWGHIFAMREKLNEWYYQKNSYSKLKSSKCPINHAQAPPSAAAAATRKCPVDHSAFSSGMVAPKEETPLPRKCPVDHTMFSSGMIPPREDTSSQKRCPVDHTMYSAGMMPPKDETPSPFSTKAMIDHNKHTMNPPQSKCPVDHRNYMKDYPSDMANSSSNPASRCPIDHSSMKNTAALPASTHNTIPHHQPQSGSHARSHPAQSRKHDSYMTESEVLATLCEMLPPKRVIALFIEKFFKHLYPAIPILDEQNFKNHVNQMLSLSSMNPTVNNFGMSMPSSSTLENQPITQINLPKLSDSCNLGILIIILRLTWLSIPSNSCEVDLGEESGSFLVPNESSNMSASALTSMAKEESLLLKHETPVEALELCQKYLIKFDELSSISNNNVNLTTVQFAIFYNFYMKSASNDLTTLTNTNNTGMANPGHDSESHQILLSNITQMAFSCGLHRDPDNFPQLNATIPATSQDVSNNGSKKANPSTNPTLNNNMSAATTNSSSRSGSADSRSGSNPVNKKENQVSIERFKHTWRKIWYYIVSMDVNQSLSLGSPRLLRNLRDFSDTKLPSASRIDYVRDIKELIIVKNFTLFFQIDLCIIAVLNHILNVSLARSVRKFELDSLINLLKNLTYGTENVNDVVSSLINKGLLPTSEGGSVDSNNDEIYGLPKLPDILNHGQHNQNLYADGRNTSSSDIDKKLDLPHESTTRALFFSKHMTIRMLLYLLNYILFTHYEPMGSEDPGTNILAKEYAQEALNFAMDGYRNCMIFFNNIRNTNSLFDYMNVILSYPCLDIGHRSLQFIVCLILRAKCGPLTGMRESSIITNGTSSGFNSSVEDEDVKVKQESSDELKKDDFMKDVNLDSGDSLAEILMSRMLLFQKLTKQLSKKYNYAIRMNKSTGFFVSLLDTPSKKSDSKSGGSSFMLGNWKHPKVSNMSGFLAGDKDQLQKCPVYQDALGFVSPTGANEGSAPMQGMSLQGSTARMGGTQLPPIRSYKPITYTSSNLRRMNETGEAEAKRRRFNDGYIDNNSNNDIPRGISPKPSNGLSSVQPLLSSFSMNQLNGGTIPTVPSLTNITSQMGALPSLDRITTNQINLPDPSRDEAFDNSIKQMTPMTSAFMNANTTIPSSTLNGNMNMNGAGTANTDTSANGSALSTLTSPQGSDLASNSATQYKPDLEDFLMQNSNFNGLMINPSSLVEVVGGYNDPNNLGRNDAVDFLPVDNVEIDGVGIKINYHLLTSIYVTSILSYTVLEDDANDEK
row,Sequence,PBM E-score
1,CGTTACCC,-0.0123
2,CTGCGGCA,-0.0609
3,TAGCGTCA,-0.154
4,CCATAGCC,-0.0525
5,CAGCCCCG,0.226
6,CCGGCCGA,0.453
7,CACTCTTC,-0.127
8,ATCGGCAT,0.331
9,GTTAATGA,-0.0665
10,CGACAGCC,-0.0487
11,AAGACATC,-0.119
12,CACGCAGG,-0.0746
13,GATTTCCA,-0.0294
14,ATAGCTGA,-0.0318
15,AAACCAGG,-0.101
16,ACCCTCAC,-0.201
17,GGAAGATA,0.0526
18,CGCACCTC,0.0468
19,AAGCTAGA,-0.234
20,CAGTTGCA,-0.184
21,CATGTTAC,-0.147
22,GTAGCAAA,-0.0522
23,CCGTCAAC,-0.115
24,AATCCACA,-0.0108
25,AGGTTGGG,-0.164

row,Sequence,PBM E-score
1,CACCCCAG,-0.139
2,TCACCCCA,-0.032
3,AATATCCA,0.0415
4,AGTATGAC,0.0729
5,AAAATGTG,-0.0183
6,CCGTGATA,0.175
7,GAGTGGAC,-0.0763
8,GCGATGAC,0.116
9,ATATAGAT,-0.0761
10,GTCGTGTA,-0.305
11,AACCCACG,-0.0614
12,AAATGTCC,0.282
13,AATGGCGT,-0.091
14,AAATTCCC,0.145
15,GCGCTACA,0.0107
16,GGGGGATA,0.134
17,AAGTAAGA,-0.321
18,AAGGCACG,0.106
19,ACTCATCG,-0.0326
20,GACAGGAC,-0.0139
21,CGTGTCCC,0.0457
22,GGCCAGGA,-0.089
23,CATCTTTC,-0.224
24,ACACCCAT,-0.0848
25,GCTAACGA,0.113

row,Sequence,PBM E-score
1,AACTTACA,-0.241
2,CATAAATG,-0.195
3,CGTAAAAC,0.145
4,CGACATTA,0.122
5,GTAGCCTA,-0.403
6,GTAGCGAC,-0.132
7,GCATTGAA,-0.059
8,AGCCAGAC,-0.107
9,GGCCTAGA,-0.119
10,AGGTAGTC,-0.0462
11,ACTCTGAC,-0.00146
12,ATGATTTC,0.065
13,ATCCTGGA,-0.194
14,GGTCCATA,0.0375
15,GTGAAACA,-0.177
16,CCCCCAGG,-0.288
17,GATAGGCA,-0.225
18,CAAACTCC,0.228
19,TGAGCTAA,-0.141
20,AGAGACAA,-0.0839
21,AACATGGT,-0.211
22,GGAGCTAA,0.325
23,CGCGTGAA,0.0387
24,ATGGTCAG,-0.139
25,GAACTGGA,0.0859

row,Sequence,PBM E-score
1,TATGAAAA,-0.0206
2,AGGATTAA,0.034
3,GGACGCCA,-0.0384
4,GCCGACCA,0.209
5,CATAGGGG,-0.087
6,ATCCTAAC,-0.00064
7,CGAGCCGC,0.248
8,AGGTAAGG,-0.214
9,AGACTACT,-0.131
10,ACAAATGA,-0.227
11,GCGTTGCC,0.167
12,CTTAGCGA,-0.0415
13,GACCATTA,-0.0365
14,ACTTACAC,-0.164
15,AGCGCCTG,0.104
16,CAATGTCG,-0.0178
17,AATGAGTC,-0.121
18,TACCGAAA,0.188
19,TACACAGA,-0.311
20,CCTTACAC,-0.193
21,AACAAGCG,0.123
22,ATGCTTAG,-0.194
23,AAGAAGCT,-0.082
24,AGAGATTG,-0.0978
25,AGAGCTGA,-0.194

row,Sequence,PBM E-score
1,ATTGTTCC,0.249
2,AGGCGGAG,0.175
3,GCGCAGCC,-0.0639
4,AGTCGGCA,0.0618
5,AAGCTCGG,0.36
6,CTCCTAAA,-0.263
7,CAATATTA,0.0504
8,TAGGAAAA,-0.13
9,ACCGCTTA,-0.0802
10,AATGAAGC,-0.133
11,CCCTGTCC,-0.139
12,GACTTGAC,-0.102
13,CCGTCTTA,-0.122
14,GCGGCAAA,0.202
15,AATCCCCC,0.133
16,ATGTAATC,-0.0965
17,AATCGCTG,0.227
18,CGAATGTA,0.108
19,CAGCAAGA,-0.0234
20,CGCCATTA,0.143
21,CTGCAAAC,-0.234
22,CAGCTCGC,-0.0482
23,AGTTGAAT,-0.0992
24,AAAGAGCT,-0.201
25,AATTTCTC,0.107

row,Sequence,PBM E-score
1,TCCACCAA,-0.18
2,ATGGACTG,-0.203
3,CTGAAAGC,0.0591
4,GCAAGCGA,-0.099
5,CGACAACC,-0.0547
6,AAGGGATA,-0.232
7,AACCAAGA,-0.137
8,GAAATTTC,0.235
9,AGGACCGC,0.168
10,GAGTACTA,-0.0444
11,AGCTATAG,-0.244
12,CGACTACA,-0.184
13,GGGGGTAC,0.215
14,AGCAAAGA,-0.228
15,AACGTTGG,-0.218
16,AGGAGACT,-0.218
17,CACGCTCA,-0.0603
18,CGTGCGCC,0.0375
19,ATGTGCGA,-0.0499
20,GCGGATAC,0.206
21,CACCAAGA,-0.104
22,ATTGGTCC,0.171
23,ATGGCGGA,0.188
24,GGGTAGGA,0.00042
25,CTAAAGGA,-0.033

row,Sequence,PBM E-score
1,CCGAACGG,0.342
2,CTCCACAA,-0.189
3,GCCCAAAA,-0.112
4,ATTTTTTG,0.0593
5,AGTGGCAA,-0.152
6,AACCCTCC,0.0459
7,ATAAGTCG,0.0327
8,AACGACTT,-0.236
9,CTTAGAAG,-0.131
10,AGCATCGC,0.0983
11,AGCGTATG,0.0702
12,GACTCCTA,-0.279
13,CCCGGGTA,0.315
14,AAACGTTG,-0.222
15,CATTCTAC,-0.121
16,CAATACTA,-0.193
17,CAGTCATG,-0.145
18,GTTCCTCA,-0.0529
19,AGCAATAG,-0.114
20,AACATACA,-0.113
21,ACCGTGCG,0.149
22,CGGCTTAA,0.391
